The whole screen tested about 420,000 compounds, of which about 64,000 (15%) were called active. The shares of active, inactive and inconclusive entries below differ from those in the screen. Calls follow the shape of the dose curve; as a rule, active = well fitted inhibition curve with a large enough effect; inconclusive = small, poorly fitted or top-dose-only effect; inactive = flat fitted curve, though single readings scatter. Potencies of inconclusive entries are left out as doubtful fits.
Assay: qHTS for Inhibitors of human tyrosyl-DNA phosphodiesterase 1 (TDP1): qHTS in cells in absence of CPT; also: nearly all actives have a fitted effect of over 55% in size
Conditions: DT40 Tdp1-/- hTDP1 cells, no CPT, ATP luminescence, 48 h; activity change, negative = growth inhibition: at 46.2 µM (top of the series) unless noted
Method in brief: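 Compound effects on proliferation are scored in DT40 Tdp1-/-;hTDP1 cells in the absence of CPT. ATP levels (CellTiter-Glo luminescence) are recorded after a ≥48 hr, 37 °C incubation.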
% is scaled to controls: 0 for no effect and ±100 for the full control effect; potency is read from the fitted curve at half-maximal effect; tags tell the direction and shape of the fitted curve.

SMILES | Potency | activity change, negative = growth inhibition
Cn1c(N)c(C(=O)c2ccc(C#N)cc2)c(=O)n(C)c1=O | inactive | 
Cc1cc(NS(=O)(=O)c2ccc(NC(=O)COc3ccc(C#N)cc3)cc2)nc(C)n1 | inactive | 
CCOC(=O)c1c(C)[nH]c(C(=O)OCC(=O)Nc2sc(C(=O)N(C)C)c(C)c2C(=O)OCC)c1C | active: 23.1 µM | 
CC(C)OCCCNC(=O)COc1ccc2oc3c(c2c1)CCCC3 | inconclusive [inhibitor, single point] | 
CC(CNC(=O)Cn1cnc2c(OCc3ccccc3)ncnc21)c1ccccc1 (stereo unspecified) | inactive | 
O=C(CCCCCNC(=O)N1CCn2c1nc1ccccc12)N[C@H](Cc1ccccc1)C(=O)O | inactive | 
Cc1nn(CCCC(=O)Nc2ccccc2C(F)(F)F)c(=O)c2nn(-c3ccccc3)c(C)c12 | inconclusive [inhibitor, single point] | 
Nc1nnc(CC(=O)N/N=C/c2ccc(-c3ccccc3Cl)o2)s1 | inactive | 
COc1ccc(OC)c(-c2nnc(SCC(=O)N3CCCc4ccccc43)o2)c1 | inconclusive [inhibitor, partial curve, poor fit] | 
CCOc1ccc(NC(=O)CSc2ccc(-c3ccccn3)nn2)cc1 | inconclusive [inhibitor, single point] | 
CCn1c(SCC(=O)Nc2oc(C)c3c(C)n[nH]c(=O)c23)nc2sc(C)c(C)c2c1=O | inconclusive [inhibitor, single point] | 
CCC(C)N(C(=O)COC(=O)c1cn(CC)c2nc(C)ccc2c1=O)C1CCS(=O)(=O)C1 (stereo unspecified) | inactive | 
O=C1CC2(CCN(C(=O)COc3ccccc3)CC2)Oc2ccccc21 | inconclusive [inhibitor, single point] | 
Cc1ccc(-c2nn(CC(C)(C)C)c3ncnc(N)c23)cc1 | inconclusive [inhibitor, full curve, poor fit] | 
Cc1cc(C)n2nc(CNC(=O)c3ccc(Cl)cc3)nc2n1 | inactive | 
COc1cc(C(=O)OCC(=O)c2c[nH]c3ccccc23)ccc1OCC(=O)N1CCOCC1 | inconclusive [inhibitor, partial curve] | 
O=C(Nc1ccccc1)c1cccc(N2CCCS2(=O)=O)c1 | inactive | 
CC1(C(=O)NS(=O)(=O)c2ccc(C#N)cc2)CCN1C(=O)C1(c2ccc(Cl)cc2)CCC1 (stereo unspecified) | inactive | 
COc1ccccc1N(C(=O)c1ccco1)C(C(=O)NC1CCCC1)c1ccc(N2CCOCC2)cc1 (stereo unspecified) | inactive | 
COc1cc(/C=C/c2ccc3cccc(O)c3n2)cc(OC)c1OC | inconclusive [inhibitor, single point] | 
COc1ccc(N2CC(O)(c3ccc(F)cc3)[N+]3=C2CCCC3)cc1 (stereo unspecified) | inconclusive [inhibitor, partial curve] | 
CCCCNC(=O)CSc1nc2ccc(NC(=O)CSc3nnc(N)s3)cc2s1 | inconclusive [inhibitor, partial curve] | 
Cn1c(=O)[nH]c(=O)c2c1nc(N1CCN(c3ccccc3)CC1)n2CCSc1ncccn1 | active: 10.3 µM | 
COc1cccc(C(C)(O)c2nc(-c3cccc4cccnc34)cs2)c1 (stereo unspecified) | inconclusive [inhibitor, partial curve] | 

SMILES | Potency | activity change, negative = growth inhibition
Cc1cccc(N2CCN(C(=O)c3ccc(Cl)c(S(=O)(=O)NCc4ccco4)c3)CC2)c1C | inconclusive [inhibitor, single point] | 
CC(C)(C)C(=O)NNc1nc(-c2ccccc2)c2cc(Br)ccc2n1 | active: 13 µM | 
CN(C)C(CNC(=O)c1ccc(Cl)c(S(=O)(=O)N2CCCCCC2)c1)c1ccccc1 (stereo unspecified) | inconclusive [inhibitor, single point] | 
COc1ccc(-c2cc(CNC(=O)CN(C)Cc3ccccc3)on2)cc1 | inconclusive [inhibitor, partial curve] | 
COc1cccc(-c2nc(CS(=O)(=O)CC(=O)N3CCN(c4ccccc4)CC3)c(C)o2)c1 | active: 23.1 µM | 
COC(=O)[C@@H]1CCCN1Cc1c(C(=O)N2CCCCC2)nc2c(C)cccn12 | inactive | 
CC1CC(C)CN(S(=O)(=O)c2ccc(NC(=O)CN3C(=O)NC(C)(c4ccccc4)C3=O)cc2)C1 (stereo unspecified) | inactive | 
Cc1cc(C)c(CSc2ncc(-c3ccc([N+](=O)[O-])cc3)[nH]2)c(C)c1 | active: 10.3 µM | 
O=C(Nc1nnc(-c2ccccn2)o1)c1cccc(Cl)c1 | inconclusive [inhibitor, single point] | 
COC(=O)c1c(NC(=O)CCN2CCOCC2)sc2c1CCCC2 | inconclusive [inhibitor, single point] | 
Cc1ccc(C2(c3noc(CN4CCC(C(=O)N5CCOCC5)CC4)n3)CCCC2)cc1 | inconclusive [inhibitor, single point] | 
CCc1cc(C(=O)c2ccc(OC)cc2)c(NC(=O)CN2CCCC2)s1 | inconclusive [inhibitor, single point] | 
CN(C)c1ccc(C(=S)Nc2ccccc2)cc1 | active: 16.4 µM | 
CC(C)C(C(=O)NC(C)(C)C)N(CCN1CCOCC1)C(=O)CNS(=O)(=O)c1ccccc1 (stereo unspecified) | inactive | 
COCCN(CCOC)S(=O)(=O)c1ccc(C(=O)Nc2nc(C)c(C(C)=O)s2)cc1 | inactive | 
CCCCC(=O)N(C)c1c(CC)nc2c(OCCC)cccn12 | inactive | 
O=C(c1cc2nc(-c3ccccc3)cc(C(F)(F)F)n2n1)N1CCN2CCCC2C1 (stereo unspecified) | inconclusive [inhibitor, single point] | 
Cc1ccc2cc3c(NC(=O)c4ccco4)nn(C)c3nc2c1 | inconclusive [inhibitor, single point] | 
CC1CC(C)CN(C(=S)NC2CCCCC2)C1 (stereo unspecified) | active: 25.9 µM | 
Cc1ccc(Cl)cc1N1CCN(C(=O)c2ccc3c(Cl)c4c(nc3c2)CCCC4)CC1 | inconclusive [inhibitor, single point] | 
CC(C)C(=O)N1CCN(c2ccccc2NC(=O)c2cccc3ccccc23)CC1 | active: 16.4 µM | 
CC1=NN(C(=O)CCCc2ccccc2)C(O)(C(F)(F)F)C1 (stereo unspecified) | inactive | 
C/C=C(\C)CN1CCC(n2nccc2NC(=O)CCCc2ccccc2)CC1 | inactive | 
COc1ccc(CCNC(=S)N2CCC(C(N)=O)CC2)cc1 | inactive | 

SMILES | Potency | activity change, negative = growth inhibition
CCn1ccc2c(OCC(=O)Nc3ccc(OC)cc3OC)cccc2c1=O | active: 6.51 µM | 
COc1ccccc1CNC(=O)CCc1c(C)c2cc3c(C)coc3cc2oc1=O | inconclusive [inhibitor, single point] | 
COCCC(=O)N(Cc1ccc2c(c1)OCO2)C(C(=O)NC1CCCCC1)c1ccncc1 (stereo unspecified) |  | inconclusive: -30.2% [inhibitor]
CCn1c(SCC(=O)N2CCCCC2)nc2c(c1=O)SC(C)C2 (stereo unspecified) | inconclusive [inhibitor, single point] | 
Cc1ccc(SCc2c(C(=O)N/N=C/c3cccnc3)nnn2-c2nonc2N)cc1 | inactive | 
CCC1Oc2ccc(C)cc2N(CC(=O)N(Cc2ccc(C)o2)C2CC(C)(C)NC(C)(C)C2)C1=O (stereo unspecified) | inconclusive [inhibitor, single point] | 
O=c1ccc(-c2ccccc2)nn1Cc1c(F)cccc1Cl | inconclusive [inhibitor, partial curve] | 
CSc1cccc(NC(=O)C2CCCN2S(=O)(=O)c2ccc(Br)s2)c1 (stereo unspecified) | active: 23.1 µM | 
COCCn1c(=O)c(-c2cccc(C#N)c2)nc2cnc(N3CCNCC3)nc21 | inconclusive [inhibitor, single point] | 
CCN1CCN(CCCNC(=O)Cn2c(-c3cccs3)cc3cc(Cl)ccc32)CC1 | inconclusive [inhibitor, single point] | 
Clc1ccc(-c2nnnn2-c2ccc(Cl)c(Cl)c2)cc1Cl | inconclusive [inhibitor, single point] | 
COc1ccc(-c2ccc(C(=O)NCC(C)C)c3occc23)c(C)c1 | inconclusive [inhibitor, single point] | 
COc1ccc(NC(=O)CN(C)C(=O)c2ccc3[nH]c4c(c3c2)CC(C)CC4)cc1 (stereo unspecified) | active: 23.1 µM | 
O=S(=O)(Nc1ccc(O)c(Sc2nc3ccccc3s2)c1)c1cc(Cl)ccc1Cl | inconclusive [inhibitor, single point] | 
O=C(N/N=C/c1ccc(N2CCOCC2)o1)c1ccccc1[N+](=O)[O-] | inconclusive [inhibitor, partial curve] | 
CCCn1nc(NC(=O)C2CCCO2)c2cc3cc(C)ccc3nc21 (stereo unspecified) |  | inconclusive: -31.4% [inhibitor]
Nc1ncncc1-c1ccc(F)cc1 | inconclusive [inhibitor, single point] | 
Cc1ccc2[nH]c(=O)c(CN(Cc3cccnc3)Cc3nnnn3CCN3CCOCC3)cc2c1 | active: 20.6 µM | 
Cn1c(SCc2cccc(Br)c2)nc2ccccc2c1=O | inconclusive [inhibitor, partial curve] | 
COc1ccc(C2=CC(c3cccc(OC)c3)n3nnnc3N2)cc1 (stereo unspecified) | active: 29.1 µM | 
N#Cc1ccc(C(=O)Nc2cc(C3CC3)nn2-c2ccccc2)cc1 | inactive | 
Cc1c(Cl)cccc1NC(=O)C(=O)NCCc1csc2nc(-c3ccccc3F)nn12 | inconclusive [inhibitor, single point] | 
COc1ccccc1-c1coc2c(CN3CCC(C)CC3)c(O)ccc2c1=O | inconclusive [inhibitor, partial curve] | 

From PubChem BioAssay AID686978 (National Center for Advancing Translational Sciences (NCATS), 2013)
